Measurements reported in PubChem BioAssay (NCATS).
Inconclusive means that the source gave no clear call. Such entries were picked first, then a sample of the others. No potency is given beside an inconclusive call; the fits are too rough. The source made the active and inactive calls. The call rests on the fitted dose curve; in most records, active means well fitted inhibition curve with a large enough effect; inconclusive means small, poorly fitted or top-dose-only effect; inactive means no such curve, though single readings can be large or run the other way.

Biological target: N-terminal Xaa-Pro-Lys N-methyltransferase 1 (Homo sapiens) (UniProt Q9BV86)
Test: qHTS Assay for Inhibitors of N-terminal methyltransferase 1 (NTMT1): LOPAC validation of the NTMT1 SAHH-coupled ThioGlo3 Assay (AID 1347143)
Details: recombinant NTMT1, SAHH-coupled ThioGlo3 fluorescence; series mostly up to 114 µM
In short: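 Fluorescence read-out (excitation 340nm, emission 450nm) of SAH-derived thiol, measured via SAHH coupling and ThioGlo3, taken immediately and after a 30 min room-temperature reaction, then normalized to the background read. Enzyme: NTMT1 at 125nM; cofactor SAM 100uM in the added reagent.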
Further: nearly all actives have a fitted effect of over 70% in size.
Potency means the concentration at half of the fitted maximal effect; tags describe the fitted curve by direction and shape.

UniProt Q9BV86, sequence (Q9BV86 whole entry, looked up): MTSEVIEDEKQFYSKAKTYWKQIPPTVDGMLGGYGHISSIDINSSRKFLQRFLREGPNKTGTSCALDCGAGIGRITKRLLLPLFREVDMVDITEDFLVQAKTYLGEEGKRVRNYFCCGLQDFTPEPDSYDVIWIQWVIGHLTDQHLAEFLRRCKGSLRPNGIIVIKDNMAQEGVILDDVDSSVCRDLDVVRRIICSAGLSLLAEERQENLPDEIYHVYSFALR

Compound | Potency
NO | inactive
CNC(=O)Oc1ccc2c(c1)[C@]1(C)CCN(C)[C@@H]1N2C | inconclusive [inhibitor, partial curve]
CN1CCN(C2Cc3ccccc3Sc3ccc(Cl)cc32)CC1 (stereo not given) | inconclusive [inhibitor, partial curve]
NC(=O)c1cn(Cc2c(F)cccc2F)nn1 | inactive
C#CCN(C)Cc1ccccc1 | inconclusive [inhibitor, partial curve]
CN1CCC[C@@H]1Cc1c[nH]c2ccc(CCS(=O)(=O)c3ccccc3)cc12 | inconclusive [inhibitor, partial curve, poor fit]
Nc1ccc(-c2ccc3ccccc3n2)cc1 | active: 39.8 µM
COc1cc2c(cc1O)CC[C@@H]1[C@@H]2CC[C@]2(C)[C@@H](O)CC[C@@H]12 | inconclusive [inhibitor, partial curve, poor fit]
O=C1/C(=C/c2ccsc2)CC/C1=C\c1cccs1 | inconclusive [inhibitor, partial curve]
CC(=O)NCCc1c[nH]c2ccc(O)cc12 | inconclusive [inhibitor, partial curve]
CSc1ccc2c(c1)C(N1CCN(C)CC1)Cc1ccccc1S2 (stereo not given) | inconclusive [inhibitor, partial curve]
COc1ccccc1OCC(O)CN1CCN(CC(=O)Nc2c(C)cccc2C)CC1 (stereo not given) | inconclusive [inhibitor, partial curve]
Cn1ccc2cc3c(cc21)CCN3C(=O)Nc1cccnc1 | inconclusive [inhibitor, partial curve]
CCc1ccc(/C=C2/SC(=S)NC2=O)cc1 | inconclusive [inhibitor, partial curve, poor fit]
Cn1cc(C2=C(c3ccc(Cl)cc3Cl)C(=O)NC2=O)c2ccccc21 | inactive
CC(=O)/C=C1\C(=O)N(C)c2ccccc21 | active: 28.2 µM
O=C1c2ccccc2C(=O)c2c(NCCc3ccc(O)cc3)ccc(NCCc3ccc(O)cc3)c21 | inconclusive [inhibitor, partial curve, poor fit]
CN1CCc2cccc3c2C1Cc1ccc(O)c(O)c1-3 (stereo not given) | active: 20 µM

Compound | Potency
O=C1NC(=O)/C(=C/c2ccc(-c3ccc(F)cc3O)o2)S1 | active: 44.7 µM
O=C(O)c1ccccc1Nc1ccccc1 | inconclusive [inhibitor, partial curve, poor fit]
O=c1onc2cnc3ccccc3n12 | active: 56.2 µM
S=C(Nc1ccccc1)Nc1nccs1 | inconclusive [inhibitor, partial curve]
Cc1cccc(C#Cc2ccccc2)n1 | inconclusive [inhibitor, partial curve]
CSc1nc(N)c2ncn([C@@H]3O[C@H](COP(=O)(O)OP(=O)(O)OP(=O)(O)O)C(O)[C@H]3O)c2n1 (stereo not given in full) | active: 50.1 µM
O=C1Cc2cc(CCN3CCN(c4nsc5ccccc45)CC3)c(Cl)cc2N1 | active: 44.7 µM
CCN1/C(=C/C(C)=O)Sc2ccc(OC)cc21 | inconclusive [inhibitor, partial curve]
O=C1NC(=O)/C(=C/c2ccc3nccnc3c2)S1 | inconclusive [inhibitor, partial curve]
Cc1[nH]c(=O)c(C#N)cc1-c1ccncc1 | inconclusive [inhibitor, partial curve, poor fit]
CCn1cc(C(=O)O)c(=O)c2cc(F)c(N3CCNC(C)C3)c(F)c21 (stereo not given) | active: 56.2 µM
O=C1NC(=O)C(c2ccccc2[N+](=O)[O-])=C1Nc1ccc(O)c(Cl)c1 | active: 28.2 µM
CC1=C(CC(=O)O)c2cc(F)ccc2/C1=C\c1ccc(S(C)=O)cc1 (stereo not given) | inconclusive [inhibitor, partial curve]
c1ccc(C(NCCNC(c2ccccc2)c2ccccc2)c2ccccc2)cc1 | inactive
O=C(O)/C=C/c1ccc(O)c(O)c1 | active: 44.7 µM
OC[C@H]1O[C@@H](n2cnc3c(NC4CCCCC4)ncnc32)[C@H](O)[C@@H]1O | inactive
c1cnc2c(c1)ccc1cccnc12 | inactive

Biological target: Furin (Homo sapiens) (UniProt P09958)
Test: Furin counterscreen qHTS for Zika virus inhibitors (AID 1347149)
Details: furin enzymatic counterscreen, fluorogenic substrate; series mostly up to 57.5 µM
In short: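 Fluorogenic cleavage of BOC-RVRR-AMC (2 microM final, Km ~15 µM) was monitored (ex 340, em 450 nm) at 37C after 15 min RT preincubation of 5 nM furin with compounds in HEPES pH 7.0 buffer with CaCl2 and Triton X-100. Percent inhibition was fitted to a 4-parameter Hill curve.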

UniProt P09958, sequence (P09958 whole entry, looked up): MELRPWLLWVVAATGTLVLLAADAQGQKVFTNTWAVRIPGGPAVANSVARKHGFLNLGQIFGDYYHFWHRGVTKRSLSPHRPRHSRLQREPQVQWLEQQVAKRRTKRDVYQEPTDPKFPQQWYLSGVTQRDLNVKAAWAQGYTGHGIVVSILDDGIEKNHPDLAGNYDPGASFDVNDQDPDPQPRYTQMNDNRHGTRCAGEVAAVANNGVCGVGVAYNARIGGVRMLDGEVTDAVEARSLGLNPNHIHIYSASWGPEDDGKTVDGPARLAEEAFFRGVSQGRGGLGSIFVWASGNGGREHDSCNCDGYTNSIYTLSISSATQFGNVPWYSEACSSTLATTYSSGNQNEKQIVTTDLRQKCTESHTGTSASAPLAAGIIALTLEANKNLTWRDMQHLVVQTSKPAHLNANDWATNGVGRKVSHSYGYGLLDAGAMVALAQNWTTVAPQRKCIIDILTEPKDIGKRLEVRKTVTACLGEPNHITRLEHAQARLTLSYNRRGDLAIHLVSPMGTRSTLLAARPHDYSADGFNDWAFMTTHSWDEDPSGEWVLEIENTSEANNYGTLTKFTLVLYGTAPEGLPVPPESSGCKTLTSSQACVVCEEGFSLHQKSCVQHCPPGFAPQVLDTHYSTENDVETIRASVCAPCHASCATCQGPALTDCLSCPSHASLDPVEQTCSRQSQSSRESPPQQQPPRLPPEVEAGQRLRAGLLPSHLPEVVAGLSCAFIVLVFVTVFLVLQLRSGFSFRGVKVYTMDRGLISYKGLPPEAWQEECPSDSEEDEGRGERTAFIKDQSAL

Compound | Potency
Nc1ccc(-c2ccc3ccccc3n2)cc1 | inactive
Cn1ccc2cc3c(cc21)CCN3C(=O)Nc1cccnc1 | active: 21.5 µM
O=C1NC(=O)/C(=C/c2ccc(-c3ccc(F)cc3O)o2)S1 | inconclusive [inhibitor, full curve, poor fit]
O=C1Cc2cc(CCN3CCN(c4nsc5ccccc45)CC3)c(Cl)cc2N1 | active: 24.1 µM
Cc1[nH]c(=O)c(C#N)cc1-c1ccncc1 | inconclusive [inhibitor, partial curve, poor fit]
